PubChem BioAssay (NCATS)
Several values for one entry are separate records, joined by “and”; a condition that tells them apart may be missing. Equal entries are not always repeated. Inconclusive means that the source gave no clear call. Such entries were picked first, then a sample of the others. Potencies of inconclusive entries are doubtful fits and often do not repeat. Activity calls are given as the source filed them. Calls follow the shape of the dose curve; as a rule, active = well fitted cell-killing curve with a large enough effect; inconclusive = small, poorly fitted or top-dose-only effect; inactive = flat fitted curve, though single readings scatter.

Experiment: qHTS of pediatric cancer cell lines to identify multiple opportunities for drug repurposing: Primary screen for BT-12 cells (AID 1347101); also: nearly all actives have a fitted effect of over 25% in size
Conditions: BT-12 viability, CellTiter-Glo luminescence, 48 h; series mostly up to 57.3 µM
Text: Drug repurposing or repositioning has been offered as a strategy for drug development in oncology programs. This approach has special potential for childhood cancers and other rare or orphan diseases, where the expected return on new drug development has been a disincentive to pharmaceuticals.
In this project we exploit the poly-pharmacology of drugs to discover new indications via phenotypic screening of a panel of 19 well-characterized cell lines derived from solid tumors seen in children and adolescents. The goal is to identify approved drugs with previously unrecognized anticancer properties that has the potential to reveal new mechanisms and biological processes involved in carcinogenesis or drug resistance. We employed a titration-based paradigm (quantitative high-throughput screening or qHTS), where all compounds were tested at multiple concentrations for their effect on cell viability. Concentration-response curves (CRCs) were derived directly from the primary screen, and both potency and efficacy values were used to identify compounds with robust bioactivity profiles. We screened the NIH Chemical Genomics Center (NCGC) Pharmaceutical Collection (NPC) and Mechanism Interrogation Plate (MIPE) small molecule collections of approved and investigational compounds against these cell lines; and measured metabolically active cells after 48 hours of compound treatment as a proxy for cell viability.
Assay Submitter: Nathalia J. Martinez, National Center for Advancing Translational Sciences, National Institutes of Health, Rockville, MD, USA; email: natalia.martinez@nih.gov
[1] Shen, M et al. Quantitative high-throughput phenotypic screening of pediatric cancer cell lines identifies multiple opportunities for drug repurposing. Oncotarget 2017 Dec 19;9(4):4758-4772. PMID 29435139.
The cells were obtained from University of North Carolina (UNC), Pediatric Preclinical Testing Program (PPT), and Coriell Institute (CI).
qHTS cell viability assay:
Cells were assayed in growth media at a density of 500-1,000 cells/well. Five microliters of cells were dispensed into 1,536-well, white, solid-bottom, TC-treated plates (Greiner Bio One) using a multidrop dispenser and incubated at 37 degrees C, 5% CO2, under a humidified atmosphere for 5 hours. Twenty-three nanoliters of compounds and controls (neutral control DMSO or positive control bortezomib at final concentration of 2.3 µM) were subsequently transferred by Kalypsys pintool. For primary screens, the MIPE collection was tested at 11-point dilutions (final concentrations range from 0.78 nM to 46 µM) and the NPC collection at 8-point dilutions (final concentrations range from 0.59 nM to 46 µM). Compounds tested in follow-up screens were assayed at 11-point dilutions. Cells were incubated for 48 hours, followed by addition of 3 µL of CellTiter-Glo (Promega). After a 15 min incubation at room temperature, samples were analyzed for luminescence intensity using a ViewLux High-throughput CCD imager equipped with clear filters.
Potency is read from the fitted curve at half-maximal effect; tags tell the direction and shape of the fitted curve.

| SMILES | Potency |
| --- | --- |
| CO[C@]12CC[C@@]3(C[C@@H]1[C@](C)(O)C(C)(C)C)[C@@H]1Cc4ccc(O)c5c4[C@@]3(CCN1CC1CC1)[C@H]2O5 | inconclusive: 44.4 µM [cytotoxic, single point] |
| O=c1[nH]c2ccccc2n1CCCN1CCC(n2c(=O)[nH]c3cc(Cl)ccc32)CC1 | inconclusive: 12.3 µM [cytotoxic, partial curve] and inconclusive: 27.3 µM [cytotoxic, single point] |
| COC[C@@H](NC(C)=O)C(=O)NCc1ccccc1 | inactive |
| COC1(CS(=O)c2ccccc2)CCN(CCc2c[nH]c3ccc(F)cc23)CC1 (stereo not given) | inactive |
| C=CCC1=C(C)C(OC(=O)C2C(C=C(C)C)C2(C)C)CC1=O (stereo not given) | inconclusive: 15.9 µM [cytotoxic, partial curve] |
| C[CH2][Hg][S]c1ccccc1C(=O)O | active: 3.47 µM |
| O=c1oc2ccccc2c(O)c1C(CC(O)c1ccc(-c2ccc(Br)cc2)cc1)c1ccccc1 (stereo not given) | inactive |
| CC=C(C)C(=O)N[C@@H](c1ccccc1)[C@@H](O)C(=O)O[C@H]1C[C@@]2(O)[C@@H](OC(=O)c3ccccc3)[C@@H]3[C@]4(OC(C)=O)CO[C@@H]4C[C@H](O)[C@@]3(C)C(=O)[C@H](OC(C)=O)C(=C1C)C2(C)C | inconclusive: 0.0039 µM [cytotoxic, full curve] |
| CC[C@]1(O)CC[C@H]2[C@@H]3CCC4=CCCC[C@@H]4[C@H]3CC[C@@]21C | inconclusive: 27.6 µM [cytotoxic, single point] |
| COC1CC(=C(c2cccs2)c2cccs2)C[N+](C)(C)C1 (stereo not given) | inconclusive: 11 µM [cytotoxic, partial curve] |
| Clc1ccc(CSC(Cn2ccnc2)c2ccc(Cl)cc2Cl)cc1 (stereo not given) | inconclusive: 27.6 µM [cytotoxic, single point] |
| N#CC(C#N)=Cc1ccc(O)c(O)c1 | inconclusive: 24.6 µM [cytotoxic, single point] |
| NC(=O)CN1CCCC1=O | inactive |
| CCOC(=O)C1(c2ccccc2)CCN(CCC(C#N)(c2ccccc2)c2ccccc2)CC1 | inconclusive: 11 µM [cytotoxic, partial curve] |
| CC(C)(C)CC(C)(C)c1ccc(O)cc1 | inconclusive: 25.2 µM [cytotoxic, partial curve] and inconclusive: 21.9 µM [cytotoxic, single point] |
| O=C(O)CNC(=O)c1c(O)c2ccccc2n(Cc2ccccc2)c1=O | inconclusive: 15.3 µM [cytotoxic, partial curve, poor fit] |
| O=C(Oc1ccc([N+](=O)[O-])cc1)N1CCN(Cc2cccc(Oc3ccccc3)c2)CC1 | inconclusive: 43.2 µM [cytotoxic, partial curve, poor fit] |
| CC(Cc1ccccc1)NCCn1cnc2c1c(=O)n(C)c(=O)n2C (stereo not given) | inconclusive: 55.9 µM [cytotoxic, partial curve, poor fit] |
| O=C(N[C@H]1CN2CCC1CC2)c1ccc(Cl)cc1 | inactive |
| C[C@@H]1CC2=CC(=O)CC[C@@H]2[C@H]2CC[C@@]3(C)[C@@H](CC[C@]3(C)O)[C@@H]21 | inconclusive: 19.5 µM [cytotoxic, single point] |

| SMILES | Potency |
| --- | --- |
| O=c1c(C2CC(c3ccc(-c4ccc(Br)cc4)cc3)Cc3ccccc32)c(O)sc2ccccc12 (stereo not given) | inconclusive: 30.9 µM [cytotoxic, single point] |
| O=C(NCC1CCOCC1)c1cnc(Nc2ccc(Cl)cc2Cl)nc1C(F)(F)F | inconclusive: 21.7 µM [cytotoxic, partial curve] |
| COC(=O)[C@@H](N)CCCN/C(N)=N/[N+](=O)[O-] | inactive |
| O=S(=O)(c1ccc(Cl)cc1)c1ccc(Cl)cc1 | inconclusive: 25.6 µM [cytotoxic, partial curve] |
| CC(C)(C)c1cc(C=C(C#N)C#N)cc(Br)c1O | inconclusive: 24.3 µM [cytotoxic, partial curve] |
| C=C1C[C@@H]2[C@H](CC[C@]3(C)C(=O)CC[C@@H]23)[C@@]2(C)C=CC(=O)C=C12 | inconclusive: 21.9 µM [cytotoxic, single point] |
| CCC1(CCC(C)C)C(=O)NC(=O)NC1=O | inconclusive: 87.8 µM [cytotoxic, partial curve, poor fit] |
| O=C(O)c1ccc(=O)[nH]c1 | inactive |
| Cc1ccccc1-n1c(Cn2cnc3c(N)ncnc32)nc2cccc(C)c2c1=O | inconclusive: 3.43 µM [cytotoxic, full curve] |
| Cc1c(N)nc([C@H](CC(N)=O)NC[C@@H](N)C(N)=O)nc1C(=O)N[C@H](C(=O)N[C@@H](C)[C@H](O)[C@@H](C)C(=O)N[C@@H](C(=O)NCCc1nc(-c2nc(C(=O)NCCC[S+](C)C)cs2)cs1)[C@@H](C)O)C(O[C@H]1O[C@H](CO)[C@H](O)[C@@H](O)[C@@H]1O[C@H]1O[C@H](CO)[C@@H](O)[C@H](OC(N)=O)[C@H]1O)c1cnc[nH]1 (stereo not given in full) | inconclusive: 6.85 µM [cytotoxic, partial curve] |
| COc1ccc(C(c2ccc(OC)cc2)C(Cl)(Cl)Cl)cc1 | inconclusive: 28 µM [cytotoxic, partial curve] |
| CC[C@@H]1[C@@H](C)O[C@@](O)([C@@H](C)[C@H](O)[C@H](C)[C@H]2OC(=O)C=CC=C[C@@H](C)[C@@H]([C@@H](C)[C@@H](O)[C@H](C)[C@@]3(O)C[C@H](O[C@H]4C[C@H](O)[C@H](O)[C@H](C)O4)[C@H](CC)[C@@H](C)O3)OC(=O)C=CC=C[C@@H]2C)C[C@H]1O[C@H]1C[C@H](O)[C@H](O)[C@H](C)O1 | active: 0.863 µM |
| COc1cc(CC(C)N)c(OC)cc1Br (stereo not given) | inconclusive: 65.7 µM [cytotoxic, single point] |
| NNc1ccccc1 | inactive |
| Cc1ncsc1CCCl | inactive |
| CC(=O)OC1(c2ccccc2)CCN(CCc2ccccc2)CC1 | inconclusive: 103 µM [cytotoxic, single point] |
| COC1=C[C@@H]2[C@@H]3Cc4ccc(OC)c(O)c4[C@]2(CCN3C)CC1=O | inactive |
| CCC(=O)C(CC(C)N(C)C)(c1ccccc1)c1ccccc1 (stereo not given) | inconclusive: 50.4 µM [cytotoxic, single point] |
| COCC(=O)N(c1c(C)cccc1C)C(C)C(=O)OC (stereo not given) | inactive |
| CCCN(CCC)C(=O)Cc1c(-c2ccc(Cl)cc2)nc2ccc(Cl)cn12 | inconclusive: 17.4 µM [cytotoxic, partial curve] |
